Experimental findings from paper PMC4336329 (PLoS ONE, 2015) are described below.

About 14,000 (4.5%) of roughly 310,000 compounds showed an effect of 50% or more. The effect is printed as a negative number. The list shows a part of the results.
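Also: peak tail current of the secondary pulse compared with the same well before compound.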

Chain of human ether-à-go-go-related gene (hERG) potassium channel (Q12809 whole entry, looked up): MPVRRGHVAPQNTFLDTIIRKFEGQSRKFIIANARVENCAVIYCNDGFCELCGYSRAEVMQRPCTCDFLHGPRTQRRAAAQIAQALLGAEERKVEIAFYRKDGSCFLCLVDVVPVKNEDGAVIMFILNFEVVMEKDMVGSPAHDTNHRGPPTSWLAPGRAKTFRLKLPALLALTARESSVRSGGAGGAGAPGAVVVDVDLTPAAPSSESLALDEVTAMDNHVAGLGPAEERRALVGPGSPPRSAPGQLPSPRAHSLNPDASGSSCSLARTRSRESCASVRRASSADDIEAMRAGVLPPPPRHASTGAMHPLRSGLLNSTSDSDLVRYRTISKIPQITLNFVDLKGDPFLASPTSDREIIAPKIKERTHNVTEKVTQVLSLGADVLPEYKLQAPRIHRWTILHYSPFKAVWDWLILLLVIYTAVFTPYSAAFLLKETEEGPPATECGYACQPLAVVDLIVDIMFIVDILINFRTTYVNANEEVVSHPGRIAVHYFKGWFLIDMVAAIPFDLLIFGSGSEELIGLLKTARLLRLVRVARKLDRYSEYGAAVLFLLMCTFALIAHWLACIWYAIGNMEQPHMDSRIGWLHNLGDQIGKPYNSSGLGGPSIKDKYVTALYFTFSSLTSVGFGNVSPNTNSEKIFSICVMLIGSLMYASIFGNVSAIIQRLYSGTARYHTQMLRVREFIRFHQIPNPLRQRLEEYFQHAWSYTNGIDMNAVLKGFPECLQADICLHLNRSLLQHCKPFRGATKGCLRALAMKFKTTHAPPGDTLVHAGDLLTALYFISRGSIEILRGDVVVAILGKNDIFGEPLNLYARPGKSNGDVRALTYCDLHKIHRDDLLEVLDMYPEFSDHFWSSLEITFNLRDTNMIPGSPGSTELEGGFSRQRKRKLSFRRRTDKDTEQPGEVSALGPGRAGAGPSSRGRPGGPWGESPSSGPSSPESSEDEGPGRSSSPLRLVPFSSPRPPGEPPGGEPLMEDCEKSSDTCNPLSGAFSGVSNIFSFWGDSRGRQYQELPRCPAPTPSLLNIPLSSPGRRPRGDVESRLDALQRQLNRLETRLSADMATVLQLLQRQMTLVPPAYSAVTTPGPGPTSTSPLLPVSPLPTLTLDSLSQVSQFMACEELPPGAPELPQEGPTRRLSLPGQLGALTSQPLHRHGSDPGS

This experiment addresses human ether-à-go-go-related gene (hERG) potassium channel (human, UniProt Q12809). Nature of the experiment: primary screen, population patch clamp on CHO cells stably expressing hERG.
With `Cc1ccc(-n2c(SCC(=O)N3CCCC3)nc3c(c2=O)SCC3)cc1`, the “hERG current change (%, negative = inhibition) at 10uM” value is given as 5.3%.
Turning to `O=C1CNC(=S)N1CCc1ccc(Cl)cc1`, the “hERG current change (%, negative = inhibition) at 10uM” value came out at 5.96%.
Regarding `CCOc1ccc(NC(=S)NCC(c2cccnc2)N2CCOCC2)cc1` (stereo not drawn), the “hERG current change (%, negative = inhibition) at 10uM” value is 7.27%.
In the case of `Clc1ccc2[nH]c3c(NCCN4CCOCC4)ncnc3c2c1` it was -61.8%; in that of `Cn1c2c(c(=O)n(C)c1=O)C(c1ccc(F)cc1)C(C#N)=C(N)O2` (stereo not drawn), 14.7%; in that of `CCOC(=O)c1cnc2c(C(=O)OCC)cnn2c1N`, 6.31%.
On to `Cc1ccc(S(=O)(=O)NCCC(=O)NC2CCC(C)CC2)cc1` (stereo not drawn), for which the “hERG current change (%, negative = inhibition) at 10uM” value is -2.35%.
Regarding `N#Cc1ccccc1OCC(=O)Nc1cccc(S(=O)(=O)N2CCCC2)c1`, the “hERG current change (%, negative = inhibition) at 10uM” value was 5.17%.
As for `Cc1ccc(C(=O)ONc2ccc(N=NC(=O)c3ccccc3O)cc2)cc1`, the “hERG current change (%, negative = inhibition) at 10uM” value is listed as 12.2%.
As for `CCn1nc(NS(=O)(=O)c2ccc([N+](=O)[O-])cc2)c2cc3ccc(C)cc3nc21`, the figure is 2.02%; as for `O=[N+]([O-])c1c(NCCCO)cc(Sc2ccc(Cl)cc2)c2nonc12`, 17.8%.
As for `COc1cc(OC)cc(C(=O)Nc2ccc(NC(=O)c3ccco3)c(Cl)c2)c1`, the figure is 13.6%.
Consider `COc1cccc(C(=O)NCC2CCCN(C(=O)c3ccc(C=O)cc3)C2)c1OC` (stereo not drawn), for which the “hERG current change (%, negative = inhibition) at 10uM” value turned out to be 0.357%.
Turning to `COc1cc(C(=O)Nc2ccc3c(c2)OCO3)ccc1-n1cnnn1`, the “hERG current change (%, negative = inhibition) at 10uM” value is listed as -15.6%.
`COc1ccc(C(=O)Oc2cc(N)n(S(=O)(=O)c3ccc(C)cc3)n2)cc1`: the “hERG current change (%, negative = inhibition) at 10uM” value is on record as 24.3%.
For `O=C(NCc1cccs1)c1cc(-c2cccc(Cl)c2)on1`, the “hERG current change (%, negative = inhibition) at 10uM” value is -16.1%.
In the case of `Cc1coc2c1C(=O)C(=O)c1c-2ccc2c1CCCC2(C)C` it was 19.1%; in that of `Cc1c(NC(=O)c2cccs2)cccc1C(=O)O`, -8.42%.
Consider `CCc1nnc(NC(=O)C2CCN(S(=O)(=O)c3ccc(C)cc3)CC2)s1`, for which the “hERG current change (%, negative = inhibition) at 10uM” value was determined as 8.48%.
Regarding `O=C(O)c1ccc(S(=O)(=O)NC2CC2)cc1`, the “hERG current change (%, negative = inhibition) at 10uM” value was determined as 10.6%.
On to `OCCCNc1ncnc2sc(-c3ccccc3)cc12`, for which the “hERG current change (%, negative = inhibition) at 10uM” value was 3.23%.
Turning to `O=C(COC(=O)Cc1ccc(Br)cc1)Nc1ccc(N2CCOCC2)cc1`, the “hERG current change (%, negative = inhibition) at 10uM” value is given as 8.94%.
With `COc1ccc(CC(=O)Oc2ccccc2C)cc1`, the “hERG current change (%, negative = inhibition) at 10uM” value worked out at 6.75%.
Consider `COc1cccc(/C=C2\SC(=S)N(c3cccnc3)C2=O)c1OC`, for which the “hERG current change (%, negative = inhibition) at 10uM” value is listed as 3.2%.
With `COc1ccc(NC(=O)NC2(C(=O)N3CCN(C)CC3)CCCCC2)cc1`, the “hERG current change (%, negative = inhibition) at 10uM” value worked out at 9.88%.
As for `COc1ccc(CC(=O)NCc2nnc(SCCOc3ccccc3)n2C)cc1`, the figure is -11.7%; as for `CN1CCCCCC1C(=O)N1CCC(N2CCC(C(=O)N3CCOCC3)CC2)CC1` (stereo not drawn), -13.4%.
Turning to `Cc1cccc(OC2CCN(Cc3c(C(=O)N4CCCC4)nc4ccccn34)CC2)c1`, the “hERG current change (%, negative = inhibition) at 10uM” value is reported as -59.4%.
As for `CCN(CC)CCNC(=O)c1ccccn1.O=C([O-])/C=C\C(=O)[O-]`, the figure is 16%; as for `O=C(CSc1ccc2ccccc2c1)Nc1ncccn1`, 7.7%.
`Cc1ccc(C(=O)O)cc1NC(=S)NC(=O)c1ccc(-c2ccccc2)cc1`: the “hERG current change (%, negative = inhibition) at 10uM” value is on record as 28.1%.
For `COc1ccc(CCCC(=O)N/N=C/c2ccccc2OC)cc1`, the “hERG current change (%, negative = inhibition) at 10uM” value was found to be 6.06%.
Take `O=C(Cc1ccc(Cl)c(Cl)c1)NCC1(N2CCOCC2)CCCCC1`: the “hERG current change (%, negative = inhibition) at 10uM” value is recorded as -24.9%.
For `Cc1ccccc1NC(=O)NCCc1nc2ccccc2[nH]1`, the “hERG current change (%, negative = inhibition) at 10uM” value is given as -7.81%.
Consider `COc1ccc(S(=O)(=O)N2CCOCC2)cc1NC(=O)COc1ccccc1`, for which the “hERG current change (%, negative = inhibition) at 10uM” value is given as -40.5%.
For the compound `COc1ccc(-c2c(C(F)(F)F)nn(C)c2NC(C)=O)cc1`, the “hERG current change (%, negative = inhibition) at 10uM” value was determined as 17.7%.
As for `C[C@H](NC(=O)c1nc[nH]c1C(=O)NCc1ccc(CNC(=O)OC(C)(C)C)cc1)C(=O)OC(C)(C)C`, the figure is -15.7%; as for `CCOC(=O)COn1c(=O)c(-c2ccco2)[n+]([O-])c2ccccc21`, -29.3%; as for `Cc1cc(CNC(=O)COc2ccc(F)cc2Cl)cc(C)c1O`, -8.21%.
Turning to `COC(=O)/C(=N/Nc1ccccc1C)Sc1nnc(C(O)c2ccccc2)n1-c1ccccc1` (stereo not drawn), the “hERG current change (%, negative = inhibition) at 10uM” value is 13.3%.
Consider `COc1ccc(CNC(=O)C(C)c2ccc([N+](=O)[O-])cc2)cc1` (stereo not drawn), for which the “hERG current change (%, negative = inhibition) at 10uM” value is listed as -21.2%.
As to `COC(=O)C1=C(C)Nc2c(c(=O)n(C)c(=O)n2C)C1c1ccncc1` (stereo not drawn), the “hERG current change (%, negative = inhibition) at 10uM” value was found to be 31.4%.
In the case of `COc1ccc(OCC(=O)NCc2cccnc2)cc1` it was 8.79%; in that of `Cc1cc(C)nc(NNC(=O)c2ccccc2O)n1`, 16.1%.
In the case of `COc1ccc(-n2c(SCC(=O)Nc3ccccc3OC)nc(O)c(Cc3ccccc3)c2=O)cc1`, the “hERG current change (%, negative = inhibition) at 10uM” value was -8.35%.
